The record followed here is PMC4336329 (PLoS ONE, 2015).

Out of some 310,000 compounds screened, about 2,200 (0.71%) showed an effect of 50% or more. Effects have a minus sign here. The list shows a part of the results.

In the assay the target is human ether-à-go-go-related gene (hERG) potassium channel (human, UniProt Q12809). Description: primary screen, population patch clamp on CHO cells stably expressing hERG.
Sequence of human ether-à-go-go-related gene (hERG) potassium channel (Q12809 whole entry, looked up): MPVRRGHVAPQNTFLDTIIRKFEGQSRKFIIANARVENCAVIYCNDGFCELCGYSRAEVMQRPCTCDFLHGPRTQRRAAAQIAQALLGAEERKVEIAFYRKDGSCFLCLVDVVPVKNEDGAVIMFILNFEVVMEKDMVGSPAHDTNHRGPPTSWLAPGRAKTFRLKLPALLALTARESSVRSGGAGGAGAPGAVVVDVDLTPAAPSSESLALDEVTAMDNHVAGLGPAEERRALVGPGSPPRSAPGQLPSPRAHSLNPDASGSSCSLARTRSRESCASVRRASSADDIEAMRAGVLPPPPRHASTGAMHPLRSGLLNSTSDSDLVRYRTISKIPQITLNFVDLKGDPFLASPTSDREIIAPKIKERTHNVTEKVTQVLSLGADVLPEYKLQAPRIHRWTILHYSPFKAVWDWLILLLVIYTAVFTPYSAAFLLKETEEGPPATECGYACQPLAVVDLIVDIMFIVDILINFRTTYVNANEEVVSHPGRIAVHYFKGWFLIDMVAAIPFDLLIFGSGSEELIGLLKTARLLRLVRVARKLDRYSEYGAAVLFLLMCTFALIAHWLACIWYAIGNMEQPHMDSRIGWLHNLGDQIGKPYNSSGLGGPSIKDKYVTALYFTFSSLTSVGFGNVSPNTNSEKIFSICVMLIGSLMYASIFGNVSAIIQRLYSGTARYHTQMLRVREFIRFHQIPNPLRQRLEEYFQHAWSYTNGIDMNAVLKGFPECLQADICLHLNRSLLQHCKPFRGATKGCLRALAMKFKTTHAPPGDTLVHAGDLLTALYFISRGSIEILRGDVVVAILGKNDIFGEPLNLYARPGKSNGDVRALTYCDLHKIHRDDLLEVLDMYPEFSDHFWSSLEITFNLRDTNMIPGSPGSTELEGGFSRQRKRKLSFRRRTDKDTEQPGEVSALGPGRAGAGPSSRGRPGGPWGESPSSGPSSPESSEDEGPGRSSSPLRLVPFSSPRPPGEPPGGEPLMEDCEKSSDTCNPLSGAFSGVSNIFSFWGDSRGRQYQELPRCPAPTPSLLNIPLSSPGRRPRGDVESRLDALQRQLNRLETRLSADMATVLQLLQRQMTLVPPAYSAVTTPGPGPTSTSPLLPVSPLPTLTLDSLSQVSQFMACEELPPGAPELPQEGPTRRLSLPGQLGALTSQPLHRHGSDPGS
With `CCCNC(=O)c1cc(-c2ccc(Br)cc2)on1`, the “hERG current change (%, negative = inhibition) at 1uM” value is on record as 9.53%. In the case of `Cc1ccc(CNC(=O)CCCc2nc3ccccc3s2)cc1`, the “hERG current change (%, negative = inhibition) at 1uM” value was determined as 8.65%. As to `CC1(C2CC2)NC(=O)N(CC(=O)Nc2ccc(Cl)c([N+](=O)[O-])c2)C1=O` (centres unmarked), the “hERG current change (%, negative = inhibition) at 1uM” value is on record as 4.43%. For `O=C(c1cc(COc2ccc(F)cc2Cl)on1)N(Cc1ccncc1)CC1CCCO1` (centres unmarked), the “hERG current change (%, negative = inhibition) at 1uM” value was -15.8%. Take `COc1ccccc1NC(=O)C(C)OC(=O)Cc1n[nH]c(=O)c2ccccc12` (centres unmarked): the “hERG current change (%, negative = inhibition) at 1uM” value came to 14.6%. Consider `COCCNC(=O)COC(=O)c1ccc(S(=O)(=O)N2CCOCC2)cc1`, for which the “hERG current change (%, negative = inhibition) at 1uM” value is listed as 12.5%. Take `Cc1ccccc1C(=O)Nc1ccccc1C(=O)NCc1ccccc1`: the “hERG current change (%, negative = inhibition) at 1uM” value was found to be 0.985%. For `COc1ccc(OC)c(NS(=O)(=O)c2ccc3c(c2)C(C)(C)C(=O)N3C)c1` the value was 7.77%; for `Cc1cc(C(=O)N2CCN(c3ncccn3)CC2)c2cc(F)ccc2n1`, 15.4%. As to `CCOC(=O)N1CCN(C(=O)COC(=O)CNC(=O)c2ccc(C)cc2)CC1`, the “hERG current change (%, negative = inhibition) at 1uM” value is -3.09%. For the compound `COC(=O)c1sc2nc[nH]c(=O)c2c1C`, the “hERG current change (%, negative = inhibition) at 1uM” value turned out to be 13%. Regarding `CCOc1ccccc1NS(=O)(=O)c1cc2c3c(c1)CC(=O)N3CCC2`, the “hERG current change (%, negative = inhibition) at 1uM” value amounted to 11.6%. On to `CC(C)(C)c1ccc(C(=O)N/C(N)=N/c2nc3ccccc3o2)cc1`, for which the “hERG current change (%, negative = inhibition) at 1uM” value is given as -4.19%. Take `COc1ccc(Cl)cc1S(=O)(=O)NC(C)C(=O)NCc1ccc2c(c1)OCO2` (centres unmarked): the “hERG current change (%, negative = inhibition) at 1uM” value is on record as 7.77%. For the compound `NNC(=S)Nc1c(Br)cc(F)cc1Br`, the “hERG current change (%, negative = inhibition) at 1uM” value turned out to be 13.1%. Turning to `Cc1ccccc1NC(=O)CSc1nc2cc3c(cc2cc1C)CCC3`, the “hERG current change (%, negative = inhibition) at 1uM” value stood at 12.7%. Regarding `CC(C)CNC(=O)CC(=O)N/N=C/c1cccs1`, the “hERG current change (%, negative = inhibition) at 1uM” value is listed as 8.81%. Turning to `O=C(c1cccnc1)N1CCN(C(=O)c2ccco2)CC1`, the “hERG current change (%, negative = inhibition) at 1uM” value is given as 11.1%. As for `CC(/C=C1\SC(=O)N(CCCC(=O)O)C1=O)=C\c1ccccc1`, the “hERG current change (%, negative = inhibition) at 1uM” value is 11.9%. For the compound `O=C(Oc1ccc2[nH]cc(CCN3C(=O)c4ccccc4C3=O)c2c1)c1ccco1`, the “hERG current change (%, negative = inhibition) at 1uM” value came to 9.71%. `O=C(c1ccc(=O)[nH]c1)N(Cc1ccco1)C1(C(=O)NC2CCCCC2)CCCCC1`: the “hERG current change (%, negative = inhibition) at 1uM” value is reported as -9.41%. Turning to `Cc1ccc(-c2nc3sc(C(N)=O)c(N)c3c3c2CCCC3)cc1`, the “hERG current change (%, negative = inhibition) at 1uM” value is reported as 10.3%. As for `Cc1nc(NC(=S)NC(=O)c2ccco2)sc1C(=O)N(C)C`, the “hERG current change (%, negative = inhibition) at 1uM” value was 10.2%. Take `CCn1cc(C(=O)NCc2ccc(OC)cc2)c(=O)c2ccc(C)nc21`: the “hERG current change (%, negative = inhibition) at 1uM” value came out at 24.9%. For `CN(C)c1ccc(C(=S)N2CCN(S(=O)(=O)c3ccccc3)CC2)cc1`, the “hERG current change (%, negative = inhibition) at 1uM” value is 10.3%. For `Cc1ccc(S(=O)(=O)NCc2c(-c3ccccc3)noc2C)cc1`, the “hERG current change (%, negative = inhibition) at 1uM” value is on record as 1.72%. As to `O=C(c1ccnc(Cl)c1)N1CCCC(N2CCN(c3ccccc3F)CC2)C1` (centres unmarked), the “hERG current change (%, negative = inhibition) at 1uM” value was -0.839%. In the case of `O=C(CCn1c(=O)[nH]c2ccccc2c1=O)N1CCN(c2cccc(C(F)(F)F)c2)CC1`, the “hERG current change (%, negative = inhibition) at 1uM” value is -5.77%. `Cc1ccc(S(=O)(=O)CCC(=O)OCC(=O)N(C)CC(=O)Nc2ccc(F)cc2)cc1`: the “hERG current change (%, negative = inhibition) at 1uM” value is reported as -1.74%. The result for `CC1CCN(CCc2nc3cc(NC(=O)COc4ccc(Cl)cc4)ccc3n2C)CC1` reads -60.7%; that for `O=C(CCCCCN1C(=O)CCC1=O)Nc1ccc(Cl)c(C(F)(F)F)c1`, -8.08%. Turning to `O=C(CCNC(=O)c1ccccc1Cl)NCCCSc1ccccc1`, the “hERG current change (%, negative = inhibition) at 1uM” value was 9.29%. For the compound `Cn1c(=O)c(=O)n(C)c2cc(N3CCOCC3)c(NS(=O)(=O)c3ccc(F)c(Cl)c3)cc21`, the “hERG current change (%, negative = inhibition) at 1uM” value is recorded as 7.97%. As to `CCCCC(c1nnnn1CS(=O)(=O)c1ccc(C)cc1)N1CCN(c2ccccc2)CC1.Cl` (centres unmarked), the “hERG current change (%, negative = inhibition) at 1uM” value worked out at 14%. For the compound `CCON1C(=O)C(C)(C)N(OCC)C(=O)C1(C)C`, the “hERG current change (%, negative = inhibition) at 1uM” value amounted to 12%. Consider `S=C(NC1CCCCC1)N1CCn2cccc2C1c1ccncc1` (centres unmarked), for which the “hERG current change (%, negative = inhibition) at 1uM” value came out at 6.91%. For `Cc1c(OCC(=O)N2CCC(C(N)=O)CC2)ccc2c3c(c(=O)oc12)CCC3`, the “hERG current change (%, negative = inhibition) at 1uM” value turned out to be 9.36%.

As for `CCn1cc(C(=O)NCCCOC)c(=O)c2cc(S(=O)(=O)N(C)C3CCCCC3)ccc21`, the “hERG current change (%, negative = inhibition) at 1uM” value is -2.67%.

Regarding `O=C(Nc1ccccc1)C1=C[C@@H](c2csc3ccccc23)C[C@@H](OCc2ccc(CO)cc2)O1`, the “hERG current change (%, negative = inhibition) at 1uM” value worked out at 17%. For `CCOC(=O)c1ccc(N=C2SC(C(=O)NC)CC(=O)N2CCc2ccccc2)cc1` (centres unmarked) the value was 11.7%; for `CCCCc1c(O)nc(SCC(=O)N2CCOCC2)n(-c2ccccc2C)c1=O`, 13.5%; for `CCn1c(C(=O)N2CCCC(C(=O)NCCCc3ccccc3)C2)cc2sccc21` (centres unmarked), -0.181%. On to `CCC(=O)N(CCc1ccccc1)Cc1cc2cc3c(cc2[nH]c1=O)OCO3`, for which the “hERG current change (%, negative = inhibition) at 1uM” value is recorded as 7.52%. For `COC(=O)c1cc(S(=O)(=O)NCCc2ccc(Cl)cc2)c[nH]1` the value was 6.44%; for `C(=N\N1CCN(Cc2cccc3ccccc23)CC1)/c1cccnc1`, -4.62%. As to `Cc1cc(NC(=O)Nc2ccccc2)n(C(C)(C)C)n1`, the “hERG current change (%, negative = inhibition) at 1uM” value is 16.7%. As for `CC1CN(C(=S)SCCN2C(=O)CCC2=O)CC(C)O1` (centres unmarked), the “hERG current change (%, negative = inhibition) at 1uM” value stood at 6.36%. As for `CCOC(=O)c1cn2nc(Oc3ccc(C#N)cc3)ccc2n1`, the “hERG current change (%, negative = inhibition) at 1uM” value is -11.1%. On to `CCC(=O)NC(c1ccc(N(C)C)cc1)c1c(O)ccc2ccccc12` (centres unmarked), for which the “hERG current change (%, negative = inhibition) at 1uM” value was 8.7%. For `CC/C(=N\Nc1ccnc2cc(Cl)ccc12)c1ccc(O)cc1` the value was 15%. On to `CC(Sc1nnc(-c2ccccc2Br)o1)C(=O)N1CCOCC1` (centres unmarked), for which the “hERG current change (%, negative = inhibition) at 1uM” value is -1.79%. In the case of `Cc1cc(-c2ccccc2)nc(N(C)NC(=O)C(C)(C)C)c1S(C)(=O)=O`, the “hERG current change (%, negative = inhibition) at 1uM” value worked out at 7.88%.

Consider `CN(Cc1ccc(F)cc1)C(=O)CNC(=O)C1CCCCC1`, for which the “hERG current change (%, negative = inhibition) at 1uM” value was 12%.

Turning to `O=C(COC(=O)COc1ccccc1)Nc1ccc(OC(F)(F)F)cc1`, the “hERG current change (%, negative = inhibition) at 1uM” value was 11.5%. On to `Cc1ccccc1CNC(=O)C1CCCN(c2cnccn2)C1` (centres unmarked), for which the “hERG current change (%, negative = inhibition) at 1uM” value is given as 8.47%. For the compound `O=C(CSc1nnc(NC(=O)C2CC2)s1)Nc1ccccc1C(F)(F)F`, the “hERG current change (%, negative = inhibition) at 1uM” value stood at 14%.
